#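 Dose response: 5 concentrations. Exposure: 48 h. Format: 96-well plates. Endpoint: linear interpolation; highest concentration if not reached. Here, GI50 denotes the concentration required for 50% inhibition of growth.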 Activity calls are given as the source filed them. Rule as the data show it: active = GI50 up to about 1.1 µM and inactive = higher.
# Tested on: NCI-H322M
# Test: NCI-60 cell line screen, 48 h
row,Compound,GI50
1,Cc1cn2cc(-c3ccncc3)nc2s1,inactive: > 100 µM
2,O=c1c(-c2ccccc2)c(SCCN2CCOCC2)n(-c2ccccc2)c(=S)n1-c1ccccc1,inactive: > 100 µM
3,CC1c2ccccc2Cn2cc3c(c21)C(=O)c1cccc(OP(=O)(O)OCc2ccccc2)c1C3=O (stereo unspecified),inactive: > 100 µM
4,C[N+]1=c2c3cccc4cccc(c(=O)n2CCC1)c43,inactive: 26.4 µM
5,COC1OC(COC(C)=O)C(OC(C)=O)C(OC(C)=O)C1NC(=O)N(CCCl)N=O (stereo unspecified),inactive: > 100 µM
6,COC(=O)c1c(O)ccc2c1c1cc3ccccc3c(O)c1n2Cc1ccccc1Cl,inactive: 30.5 µM
7,CCCCNC(=S)c1ccc(OC(=O)Nc2ccc(Cl)cc2)cc1,inactive: > 100 µM
8,O=C(Nc1ccn(CCO)c(=O)n1)c1ccccc1,inactive: > 100 µM
9,COC(=O)[C@H](C)[C@H]1CC[C@@](C)([C@H]2CC3C(C)(C)[C@H]4CCC(C)=C[C@H]4C[C@@]3(C)O2)OO1 (stereo partly specified),inactive: 16 µM
10,Cc1ccc(S(=O)(=O)CC2(Br)CCc3ccccc3C2=O)cc1 (stereo unspecified),inactive: > 100 µM
11,Cc1cc(N(CCC#N)CCC#N)ccc1/C=C1N=C(/C=C\c2ccccc2)N(c2ccc(Cl)cc2)C\1=O,inactive: > 72.1 µM
12,C=C1C(=O)O[C@@H]2O[C@@]3(C)CC[C@H]4[C@H](C)CC[C@@H]1[C@@]24O3 [DEOXYARTEMISITENE],inactive: 46.1 µM
13,COc1cc(/C=C2\C(=O)N(C(=O)Cc3ccccc3)N=C2C)cc(OC)c1OC,inactive: > 100 µM
14,O=C(Nc1ccccc1)c1cc2ccccc2c(/N=N/c2ccc([N+](=O)[O-])cc2)c1O,inactive: > 100 µM
15,Cc1cccc(C(C)(C)C)c1NC(=O)CC1C(=O)Nc2ccccc2S1(=O)=O (stereo unspecified),inactive: 11.5 µM
16,Nc1ccc(C(=O)N/C(=C\c2ccc3c(c2)OCO3)c2nc3ccccc3s2)cc1,inactive: 16.3 µM
17,COc1cccc(O)c1-c1cc(=O)c2c(O)c(OC)c(OC)c(OC)c2o1 [SKULLCAPFLAVONE II],inactive: 48.9 µM
18,O=C1CCc2cc([N+](=O)[O-])ccc2O1,inactive: > 100 µM
19,CCCCn1c(C)c(C(=O)OCC)c2cc(OCc3ccc(C(=O)Nn4c(C)ccc4C)cc3)c(Br)cc21,inactive: > 100 µM
20,C=C(CN(C)C)C(=O)c1ccc(Oc2ccccc2)cc1,inactive: 28.4 µM
21,N#CCCN(CCCN(C(=O)Nc1ccccc1)c1ccccc1)C(=O)Nc1ccccc1,inactive: > 100 µM
22,CCOc1ncn(-c2ccc(NC(=S)Nc3cccc(O)c3)cc2)n1,inactive: > 100 µM

row,Compound,GI50
1,COc1ccc(COCC[C@H](C)OC2OC(CO[Si](C)(C)C(C)(C)C)C(O)C(O)C2O)cc1 (stereo partly specified),inactive: > 100 µM
2,CC(=O)Nc1ccc(/C=C/C(=O)c2sc(-c3cccnc3)nc2C)cc1,inactive: > 100 µM
3,C=C(C)C1C/C=C(/C)CCCC2(CCC3=C(CC(C(=C)C)C/C=C(/C)CCC3)O2)C(=O)C1 (stereo unspecified),inactive: > 100 µM
4,COC(=O)c1c(O)ccc2c1C1(Cc3ccccc3C1=O)C(O)O2 (stereo unspecified),inactive: 49.1 µM
5,COc1ccc(-c2cc(-c3ccc(Nc4ccnc5cc(C(F)(F)F)ccc45)cc3)nc(N)c2C#N)cc1,inactive: 32.7 µM
6,N#Cc1nnn(C2CCCCC2)c1O,inactive: > 100 µM
7,CN(/N=C\c1ccc2ccccc2c1)C1=NCCCCN1,inactive: 19.3 µM
8,Cc1ccc(/C=C/C(=O)c2cc(CN(C)C)c(O)c(CN(C)C)c2)cc1,inactive: 15.4 µM
9,OCCSCc1ccccc1,inactive: > 100 µM
10,CCOC(=O)/C(C(=O)c1ccc([N+](=O)[O-])cc1)=C(\NS(=O)(=O)c1cc(C)c(Cl)cc1[S-])[n+]1ccc(N(C)C)cc1,inactive: 10.9 µM
11,O=C(Nc1nc2ccccc2s1)c1cc([N+](=O)[O-])ccc1Cl,inactive: 15.2 µM
12,Cc1ccnc(NC(NC(=O)c2ccccc2)(C(F)(F)F)C(F)(F)F)c1,inactive: > 100 µM
13,O=C(CSCC(=O)N/N=C\c1ccc(F)cc1F)N/N=C\c1ccc(F)cc1F,inactive: > 100 µM
14,CC1(C)C(OC(=O)c2ccccc2)C[C@]23CCC[C@](C)(C[C@@H](O)C12)C3 (stereo partly specified),inactive: 17.4 µM
15,O=C1O/C(=C(/c2ccc(Cl)cc2)c2nc3ccccc3[nH]2)C(O)=C1c1ccc(Cl)cc1,inactive: 3.16 µM
16,O=c1c2cc(Br)ccc2ncn1COCc1ccccc1,inactive: > 100 µM
17,O=C(/C=C/c1ccc(O)c(O)c1)OCC(OC(=O)/C=C/c1ccc(O)c(O)c1)C(=O)O (stereo unspecified),inactive: > 100 µM
18,c1ccc(-c2cc(-c3cc(-c4ccccc4)no3)on2)cc1,inactive: > 100 µM
19,COC1(OC)CC2C(=O)N(Cc3ccccc3)C1C=C2S(=O)(=O)c1ccccc1 (stereo unspecified),inactive: 37.5 µM
20,COC(=O)n1c(=O)n(-c2ccccc2)c(=O)n1C(=O)OC,inactive: > 100 µM
21,C[C@H]1COC2=C1C(=O)C(=O)c1c2ccc2c1CCCC2(C)C [CRYPTOTANSHINONE],inactive: 1.64 µM
22,CC(C)(C)OC(=O)/C=C/C(=O)O/C=C/[N+](=O)[O-],inactive: > 100 µM

row,Compound,GI50
1,O=C(OC1C(Oc2ccccc2COC(=O)C2(O)C=CCCC2=O)OC(CO)C(O)C1O)c1ccccc1 (stereo unspecified),inactive: 29.9 µM
2,COc1cccc(N(CN2CC=CC2=O)C(C)=O)c1,inactive: > 100 µM
3,Cc1ccc(NCC(=O)N2CC(=O)Nc3ccccc32)cc1,inactive: > 100 µM
4,Cc1ccc2nc(Cl)c(/C=N/N3C(=O)/C(=C/c4cccc([N+](=O)[O-])c4)N=C3c3ccccc3)cc2c1,inactive: > 100 µM
5,CC(=O)Nc1ccc(C(=O)N2N=C(C)/C(=C\c3c(O)ccc4ccccc34)C2=O)cc1,inactive: > 100 µM
6,CC(=O)NC1C(OCc2ccccc2)OC(CO)C(O)C1OC(C)C(=O)NC(C(=O)NC(CCC(=O)Nc1ccc2c(c1)CN1C(=O)c3ccccc3C1=N2)C(N)=O)C(C)C (stereo unspecified),inactive: > 100 µM
7,C1CSCCSCCCS[C@@H]2CCCCC2SC1 (stereo partly specified),inactive: > 100 µM
8,COc1cc(C(O)C(=O)c2nc3ccc([N+](=O)[O-])cc3nc2O)ccc1O (stereo unspecified),inactive: > 100 µM
9,CCc1n[nH]c(=O)[nH]1,inactive: > 100 µM
10,CCC(/C(=N/NC(=O)C[N+](C)(C)C)c1ccccc1)C1OC(=O)c2ccccc21 (stereo unspecified),inactive: > 100 µM
11,COc1cc(/C=C(/C#N)C(N)=O)ccc1O,inactive: > 100 µM
12,O=C(Cn1cc(Br)c(=O)[nH]c1=O)c1ccc(-c2ccccc2)cc1,inactive: 16.5 µM
13,Cc1cnc2c(c1)C(=O)C1=C(C2=O)C2OC(=O)CC2OC1(C)C (stereo unspecified),inactive: 2.2 µM
14,CCOP(C)(=O)C(Cc1c[nH]c2ccccc12)C(=O)O (stereo unspecified),inactive: > 100 µM
15,C/C(=N/NC(N)=S)c1ccc[nH]1,inactive: > 100 µM
16,O=C(c1ccc(Cl)cc1)c1ccc(OCC(=O)N2CCN(c3ccccc3)CC2)cc1,inactive: > 100 µM
17,N#Cc1ccc(C2Oc3ccc(Cl)cc3C=C2[N+](=O)[O-])cc1 (stereo unspecified),inactive: 1.82 µM
18,COc1ccc(-c2c(N)n(-c3nc4ccccc4s3)c(=O)c3cc([N+](=O)[O-])ccc23)cc1,inactive: 26.9 µM
19,COc1ccccc1[S+]([O-])Nc1ccccc1 (stereo unspecified),inactive: > 100 µM
20,C[C@H]1COC2(c3ccccc3)CCC(=O)N12 (stereo partly specified),inactive: > 100 µM
21,CCOC12OC3=C(CC1CC1=C(CCC1=O)O2)C(=O)CC3 (stereo unspecified),inactive: > 100 µM
22,COc1ccc(/N=C(/[N-]n2c(=O)c(C)nn(C)c2=S)N(c2ccc(OC)cc2)c2n[n+]3c(=O)c(C)nn(C)c3s2)cc1,inactive: > 100 µM

row,Compound,GI50
1,CC(=O)OCC1OC(Oc2cc(C)c(O)cc2C/C=C(\C)CC/C=C(\C)C[C@@H](C=C(C)C)OC(C)=O)C(O)C(OC(C)=O)C1OC(C)=O (stereo partly specified),inactive: > 50 µM
2,O=C1NC(N2CCCCC2)=N/C1=C\c1cccs1,inactive: > 100 µM
3,Cc1cccc(/C=N/NC(=S)NC2CCCCC2)n1,inactive: 31.3 µM
4,N#Cc1nnn(-c2ccc(Br)cc2)c1O,inactive: > 100 µM
5,CO[C@@]12[C@H](COC(N)=O)C3=C(C(=O)C(C)=C(N)C3=O)N1C[C@@H]1N[C@@H]12 [MITOMYCIN],active: 0.995 µM
6,CC1(C)O[C@@H]2C[C@H]3[C@@H]4C[C@H](F)C5=CC(=O)C=C[C@]5(C)[C@@]4(F)[C@@H](O)C[C@]3(C)[C@]2(C(=O)CO)O1 [FLUOCINOLONE ACETONIDE],inactive: > 100 µM
7,O=C(Oc1ccc2c(-c3ccccc3)c(C(=O)Nc3ccc(Cl)cc3)c(=O)oc2c1)c1ccccc1,inactive: > 100 µM
8,Cn1c(N)c(/C=N/NC(=O)CC#N)c(=O)n(C)c1=O,inactive: > 100 µM
9,Oc1ccc2ccccc2c1/N=N/c1ccsc1,inactive: > 100 µM
10,Cc1cn(C2CC(O)C(COC(=O)NCCC(F)(F)C(F)(F)C(F)(F)C(F)(F)F)O2)c(=O)[nH]c1=O (stereo unspecified),inactive: > 100 µM
11,O=C1[C@H]2ON(c3ccccc3)C(c3cccc([N+](=O)[O-])c3)[C@H]2C(=O)N1c1ccc(Cc2ccc(N3C(=O)[C@@H]4ON(c5ccccc5)C(c5cccc([N+](=O)[O-])c5)[C@@H]4C3=O)cc2)cc1 (stereo partly specified),inactive: > 100 µM
12,CC(OCc1ccccc1)C(NC(=O)C1CSSCC(NC(=O)C(Cc2ccccc2)NC(=O)OCc2ccccc2)C(=O)NC(Cc2ccccc2)C(=O)NC(Cc2cn(C=O)c3ccccc23)C(=O)NC(CCCCNC(=O)OCc2ccccc2)C(=O)NC(C(C)OCc2ccccc2)C(=O)N1)C(N)=O (stereo unspecified),inactive: > 68.7 µM
13,CNC1=C(C)C(=O)C(O)=C([C@H](C)CCC=C(C)C)C1=O,inactive: 19.4 µM
14,COC(=O)C(CC(C)=O)CS(=O)(=O)CC(=O)C(=O)Nc1cccc([N+](=O)[O-])c1 (stereo unspecified),inactive: > 100 µM
15,Cc1cccc(C)c1NC(=O)C1C(=O)N(c2c(C)cccc2C)C(=O)/C1=N\NC(N)=S (stereo unspecified),inactive: > 100 µM
16,COc1ccc(Cc2nc3cc(C(F)(F)F)ccc3n2CCCN(C)C)cc1,inactive: 17.9 µM
17,O=C(c1ccco1)N(C(=S)N1CCN(c2ccccn2)CC1)C1CCCCC1,inactive: > 100 µM
18,Cc1ccccc1/N=N/c1c(-c2ccccc2)nn(C(=O)CC(=O)Nc2cccc(Cl)c2)c1-c1ccccc1,inactive: 27.7 µM
19,O=C(CC1(O)C(=O)Nc2ccccc21)c1ccccc1O (stereo unspecified),inactive: > 100 µM
20,COC1=C(OC)C(=O)c2cc(C)c(=O)c(C)cc2C1=O,inactive: 18.2 µM

# From ChEMBL document CHEMBL1201862, “PubChem BioAssay data set” (2004)
